We go through 44 compounds from article PMC4336329 (PLoS ONE, 2015).

Hit rate of the full screen: of about 310,000 compounds, about 14,000 (4.5%) showed an effect of 50% or more. Effects have a minus sign here. The list shows a part of the results.
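Note: peak tail current of the secondary pulse compared with the same well before compound.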

In the experiment the target is human ether-à-go-go-related gene (hERG) potassium channel (human, UniProt Q12809). Nature of the experiment: primary screen, population patch clamp on CHO cells stably expressing hERG.
Chain of human ether-à-go-go-related gene (hERG) potassium channel (Q12809 whole entry, looked up): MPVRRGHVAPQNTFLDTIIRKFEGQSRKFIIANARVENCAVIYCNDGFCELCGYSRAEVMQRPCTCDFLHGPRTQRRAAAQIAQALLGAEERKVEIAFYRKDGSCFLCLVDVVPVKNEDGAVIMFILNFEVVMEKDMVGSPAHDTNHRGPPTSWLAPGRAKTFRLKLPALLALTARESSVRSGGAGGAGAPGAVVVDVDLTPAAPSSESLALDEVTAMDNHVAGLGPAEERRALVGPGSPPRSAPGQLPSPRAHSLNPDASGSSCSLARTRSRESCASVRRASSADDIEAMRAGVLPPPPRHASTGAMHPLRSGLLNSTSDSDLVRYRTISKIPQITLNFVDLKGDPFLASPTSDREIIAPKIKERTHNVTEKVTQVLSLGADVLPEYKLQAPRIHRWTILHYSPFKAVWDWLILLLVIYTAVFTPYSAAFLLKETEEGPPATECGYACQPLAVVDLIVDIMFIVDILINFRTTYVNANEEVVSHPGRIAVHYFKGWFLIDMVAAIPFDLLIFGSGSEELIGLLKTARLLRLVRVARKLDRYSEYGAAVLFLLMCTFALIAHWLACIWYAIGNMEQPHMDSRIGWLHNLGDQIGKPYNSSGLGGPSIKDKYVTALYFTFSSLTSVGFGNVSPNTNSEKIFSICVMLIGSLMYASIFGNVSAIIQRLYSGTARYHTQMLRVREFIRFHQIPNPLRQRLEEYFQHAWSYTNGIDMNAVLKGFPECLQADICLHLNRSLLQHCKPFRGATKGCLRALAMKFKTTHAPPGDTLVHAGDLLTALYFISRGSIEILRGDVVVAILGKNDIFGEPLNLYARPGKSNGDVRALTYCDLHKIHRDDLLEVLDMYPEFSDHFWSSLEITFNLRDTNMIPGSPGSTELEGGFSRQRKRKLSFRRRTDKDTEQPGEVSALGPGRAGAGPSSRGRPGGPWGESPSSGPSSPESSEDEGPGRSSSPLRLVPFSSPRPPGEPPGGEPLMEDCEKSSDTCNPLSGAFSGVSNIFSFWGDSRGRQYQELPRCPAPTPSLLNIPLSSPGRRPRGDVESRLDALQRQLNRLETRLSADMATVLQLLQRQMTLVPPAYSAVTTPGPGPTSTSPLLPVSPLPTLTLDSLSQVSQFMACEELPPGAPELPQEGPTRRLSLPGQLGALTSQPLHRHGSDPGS
As to `COc1ccc(NC(=O)CSc2nnnn2-c2ccccc2OC)c(OC)c1`, the “hERG current change (%, negative = inhibition) at 10uM” value was -6.71%.
Then `Cc1[nH]c2ccccc2c1C(=O)C(=O)NCC1CCCO1` (centres unmarked), with 6.3%; and `CC(C)c1ccc(-c2cc(C(=O)N3CCOCC3)c3cc(Br)ccc3n2)cc1`, with 4.92%.
As for `COc1ccccc1NS(=O)(=O)c1ccc2oc(=S)[nH]c2c1`, the figure is 2.14%; as for `CCOC(=O)N1CCN(C(=O)c2cnn3ccccc23)CC1`, 10.6%.
With `CCN1CCN(c2sc(S(C)(=O)=O)nc2S(=O)(=O)c2ccc(Cl)cc2)CC1`, the “hERG current change (%, negative = inhibition) at 10uM” value is recorded as -36.7%.
As for `CCCOc1ccc(/C=N/NC(=O)c2nnn(-c3nonc3N)c2-c2cccs2)cc1OC`, the figure is 9.32%.
Then `COc1ccc(C(=O)COc2ccccc2C(N)=O)cc1`, with 4.32%; and `COc1ccc(Cn2cnc3sccc3c2=O)cc1`, with -8.47%; and `CC(OC(=O)c1cccc(S(=O)(=O)Nc2ccccc2F)c1)C(=O)NCc1ccc2c(c1)OCO2` (centres unmarked), with 12.8%.
Then `COc1cc(CN2CCN(C(=O)Cc3ccccc3)CC2)cc(OC)c1OC.O=C(O)C(=O)O`, with -0.522%; and `Oc1c(Cl)cc(Cl)cc1C=Nc1ccc(N2CCOCC2)cc1`, with 9.99%; and `COc1ccc(C(=O)N2CCN(c3ncccn3)CC2)cc1S(=O)(=O)N1CCOCC1`, with 6.96%.
On to `CCc1ccc(CN(C(=O)c2cc3ccccc3oc2=O)C2CCS(=O)(=O)C2)cc1` (centres unmarked), for which the “hERG current change (%, negative = inhibition) at 10uM” value is given as -56.5%.
For the compound `Cc1cccc2cc(CN(CCc3ccccc3)C(=O)N3CCOCC3)c3nnnn3c12`, the “hERG current change (%, negative = inhibition) at 10uM” value was 12.5%.
Then `CC(=O)Nc1ccc2nc(CN3CCC(CO)(CCc4ccccc4)CC3)ccc2c1`, with -68.2%; and `CNC(=O)COC(=O)CNC(=O)c1cc(Cl)cc([N+](=O)[O-])c1`, with 20.2%.
Then `O=C(NC1CCCC1)C(NS(=O)(=O)c1ccc(Br)s1)c1ccccc1` (centres unmarked), with 5.51%; and `Cn1c(CC(=O)Nc2ccccc2F)nnc1SCC(=O)Nc1ccccc1Br`, with 8.69%.
As for `CC(C)c1ccc(/C=C/C(=O)NCc2ccc(S(N)(=O)=O)cc2)cc1`, the figure is 69.2%; as for `CCOCCOC(=O)C1=C(C)N(C)C(=O)NC1c1cc(Cl)c(O)c(OCC)c1` (centres unmarked), -9.39%; as for `Cc1ccc(-c2ccnc3cc(C)nn23)cc1`, -6.48%.
As for `CN(CCOc1ccccc1)C(=O)c1cc(S(=O)(=O)N2CCOCC2)ccc1Cl`, the “hERG current change (%, negative = inhibition) at 10uM” value was -48.4%.
Regarding `COc1ccccc1-n1c(SCC(=O)Nc2cccc(C(=O)O)c2)nnc1-c1ccccc1O`, the “hERG current change (%, negative = inhibition) at 10uM” value came to 11%.
`Cc1nnc(NC(=O)CSc2n[nH]c(-c3ccccc3C)n2)s1`: the “hERG current change (%, negative = inhibition) at 10uM” value stood at 8.24%.
As for `O=C(CCC(=O)N1CCCC1)Nc1ccc(Cl)c(Cl)c1`, the figure is 0.601%; as for `O=C(Nc1c2c(nn1-c1ccc(F)cc1)CS(=O)(=O)C2)c1ccc(Br)o1`, -25.3%; as for `CN(C)c1ccc(C(=S)Nc2ccccc2)cc1`, 12.5%.
Then `COc1ccc(NC(=S)N2CCN(C(=O)c3ccco3)CC2)c(OC)c1`, with -5.41%; and `Cl.NCCCCCc1nnc(SCc2cccc(Cl)c2)o1`, with -16.9%.
For the compound `CCN(CC)C(=O)CSc1nnc(-c2ccccc2)o1`, the “hERG current change (%, negative = inhibition) at 10uM” value is listed as 1.36%.
Then `O=C(NCc1ccccc1)C12CC3CC(CC(Cl)(C3)C1)C2`, with 2.82%.
Regarding `CC1Cc2ccccc2N1C(=O)CNc1cccc(S(=O)(=O)N2CCCC2)c1` (centres unmarked), the “hERG current change (%, negative = inhibition) at 10uM” value was -23.4%.
Then `Cc1ccc(S(=O)(=O)N2CCOCC2)cc1NC(=O)COC(=O)CNC(=O)c1ccccc1`, with 9.26%.
Then `CSc1nnc(-c2cc(-c3ccc(C)cc3)nc3ccccc23)o1`, with -2.94%; and `O=C(Oc1cccc2c(O)cccc12)c1ccccc1`, with 9.18%; and `O=C(COc1ccc(-c2ccccc2)cc1)N1CCCC1`, with -54.5%.
Then `c1ccc(-c2nc(-c3ccco3)cs2)nc1`, with -0.597%; and `CC(C)=CC(=O)Nc1c(C)cc(C)cc1Cl`, with 13.7%; and `Cc1ccc2nc(-c3cccc(N)c3)[nH]c2c1`, with 9.34%.
Turning to `CCCCCC1CCC(C(=O)N2CCOCC2)CC1` (centres unmarked), the “hERG current change (%, negative = inhibition) at 10uM” value is recorded as -2.44%.
As for `CC(C)(C)C(=O)Nc1ccc(S(=O)(=O)NC2=NCCCCC2)cc1`, the figure is 14.8%.
Take `Cc1cc(C)c(/C=C(\C#N)S(=O)(=O)c2ccccc2)[nH]1`: the “hERG current change (%, negative = inhibition) at 10uM” value is on record as 11%.
As for `CCNc1nc(NCC)n2c(SCC(=O)c3ccc(C(C)C)cc3)nnc2n1`, the “hERG current change (%, negative = inhibition) at 10uM” value is -13.2%.
